Test results from patent US6500842B1, “8-hydroxy-7-substituted quinolines as anti-viral agents” (Pharmacia & Upjohn Company, priority 1996, dated 2002).
Where “and” joins values, the source holds several entries; their conditions need not be identical. Equal values may be shown once. The name of at least one read-out is uncertain.

Target: T1, HCMV polymerase (Human cytomegalovirus, UniProt P08546)
T1 construct: made in house; host or cells: recombinant baculovirus-infected SF-9 cells
Assay: HCMV polymerase assay (scintillation proximity assay)
Assay type: biochemical
Details: for % Inhib: pol type CMV; for CMV pol Assay % Inhib: Table 1
Outline: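 Baculovirus/SF-9-expressed purified enzyme in HEPES pH 7.5, KCl, 4.5 mM MgCl2, BSA, with 90 nM ³H-dTTP, ± 2 mM CHAPS; started with 6 nM biotinylated poly(dA)-oligo(dT), 30 min, stopped with EDTA. Incorporation read by streptavidin SPA beads; IC50 by linear regression.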

T1 sequence (P08546 whole entry): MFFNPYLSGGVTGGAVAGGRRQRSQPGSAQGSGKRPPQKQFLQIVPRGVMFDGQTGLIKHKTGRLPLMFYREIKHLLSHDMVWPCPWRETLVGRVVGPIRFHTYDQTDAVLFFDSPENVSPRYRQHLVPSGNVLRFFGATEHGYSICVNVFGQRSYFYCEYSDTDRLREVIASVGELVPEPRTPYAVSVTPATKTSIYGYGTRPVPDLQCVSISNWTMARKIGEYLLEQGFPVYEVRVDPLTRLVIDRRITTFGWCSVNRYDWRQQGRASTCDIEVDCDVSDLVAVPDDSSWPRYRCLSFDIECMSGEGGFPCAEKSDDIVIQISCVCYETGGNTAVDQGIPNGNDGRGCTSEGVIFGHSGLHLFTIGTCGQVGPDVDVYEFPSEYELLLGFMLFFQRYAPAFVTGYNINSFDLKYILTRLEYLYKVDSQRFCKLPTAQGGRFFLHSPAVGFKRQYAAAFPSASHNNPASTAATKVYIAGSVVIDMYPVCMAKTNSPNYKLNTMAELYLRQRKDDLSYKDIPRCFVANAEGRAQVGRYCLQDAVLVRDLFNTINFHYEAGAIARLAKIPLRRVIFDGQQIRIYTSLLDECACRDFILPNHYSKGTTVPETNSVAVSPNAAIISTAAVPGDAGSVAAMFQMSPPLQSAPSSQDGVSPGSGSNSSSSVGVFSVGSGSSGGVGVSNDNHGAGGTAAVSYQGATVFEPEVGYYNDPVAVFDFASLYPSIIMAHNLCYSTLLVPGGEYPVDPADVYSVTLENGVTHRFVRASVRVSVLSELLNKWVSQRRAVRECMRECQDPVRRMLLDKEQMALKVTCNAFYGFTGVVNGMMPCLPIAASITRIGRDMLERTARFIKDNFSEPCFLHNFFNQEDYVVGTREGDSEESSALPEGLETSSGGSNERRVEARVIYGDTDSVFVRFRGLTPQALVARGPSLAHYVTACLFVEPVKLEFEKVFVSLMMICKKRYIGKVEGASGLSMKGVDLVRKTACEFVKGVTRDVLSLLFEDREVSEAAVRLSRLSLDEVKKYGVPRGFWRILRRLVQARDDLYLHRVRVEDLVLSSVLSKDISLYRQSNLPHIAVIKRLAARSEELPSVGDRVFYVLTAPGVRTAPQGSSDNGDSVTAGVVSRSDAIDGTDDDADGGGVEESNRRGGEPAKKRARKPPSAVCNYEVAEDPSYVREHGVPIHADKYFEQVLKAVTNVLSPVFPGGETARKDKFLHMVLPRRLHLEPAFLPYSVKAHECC

Row | Compound | % Inhib (Table 10, Conc 2.50e-005 M) | % Inhib (Table 10, Conc 1.30e-005 M) [%] | % Inhib (Table 10, Conc 1.56e-006 M) [%] | % Inhib (Table 10, Conc 3.13e-006 M) [%] | % Inhib (Table 10, Conc 5.00e-005 M) [%] | % Inhib (Table 10, Conc 6.25e-006 M) [%] | other results
1 | COc1ccc(C(F)(F)F)cc1NC(=O)c1ccc2cccnc2c1O | 29% | – | – | – | – | – | –
2 | O=C(Nc1ccccc1I)c1ccc2cccnc2c1O | 88.9% and 77.9% | 46 | 23.4 | 24.4 | 98.3 | 21.4 | –
3 | O=C(Nc1ccc(Br)cc1Cl)c1ccc2cccnc2c1O | 22.4% | – | – | – | – | – | –
4 | O=C(Nc1cc(Cl)ccc1O)c1ccc2cccnc2c1O | 29.4% and 53.8% | 35.6 | 24.8 | 33.6 | 78.4 | 30.4 | –
5 | COc1ccc(/C=C/c2ccc3ccc(C(=O)NCC(O)c4ccccc4)c(O)c3n2)cc1 (centres unmarked) [Example 53, 8-Hydroxy-N-(2-hydroxy-2-phenylethyl)-2-[2-(4-methoxyphenyl)ethenyl]-7-quinolinecarboxamide] | – | – | – | – | – | – | % Inhib (Table 5, Conc 1.00e-004 M): 95.8%; % Inhib (Table 5, Conc 1.00e-005 M): 94.9%; % Inhib (Table 5, Conc 1.25e-006 M): 84.8%; % Inhib (Table 5, Conc 1.30e-005 M): 94.7%; % Inhib (Table 5, Conc 2.50e-005 M): 95.8%; % Inhib (Table 5, Conc 2.50e-006 M): 92.8%; % Inhib (Table 5, Conc 3.13e-006 M): 94.6%; % Inhib (Table 5, Conc 3.13e-007 M): 46%; % Inhib (Table 5, Conc 5.00e-005 M): 92.7%; % Inhib (Table 5, Conc 5.00e-006 M): 95.4%; % Inhib (Table 5, Conc 6.25e-006 M): 94.2%; % Inhib (Table 5, Conc 6.25e-007 M): 68.2%
6 | O=C(Nc1nnc(-c2ccc(Cl)cc2)s1)c1ccc2cccnc2c1O [Example 14, N-[5-(4-Chlorophenyl)-1,3,4-thiadiazol-2-yl]-8-hydroxy-7-quinolinecarboxamide] | – | – | – | – | – | – | CMV pol Assay % Inhib (Conc 1.00E−04 M): 84.5%; CMV pol Assay % Inhib (Conc 1.30E−05 M): 42.4%; CMV pol Assay % Inhib (Conc 2.50E−05 M): 59.3%; CMV pol Assay % Inhib (Conc 3.13E−06 M): −4.4%; CMV pol Assay % Inhib (Conc 5.00E−05 M): 69.9%; CMV pol Assay % Inhib (Conc 6.25E−06 M): 5.5%
7 | O=C(Nc1cc(Cl)c(O)c(Cl)c1)c1ccc2cccnc2c1O | 67.1% and 38.9% | 19.5 | – | 8.9 | 77.2 | 15.2 | % Inhib (Table 10, Conc 1.00e-004 M): 98.8%
8 | Cl.O=C(Nc1cc(C(F)(F)F)cc(C(F)(F)F)c1)c1ccc2cccnc2c1O | 28.9% | 13.6 | – | 2.6 | 40.7 | 9.8 | % Inhib (Table 10, Conc 1.00e-004 M): 60% and 63.8%
9 | O=C(Nc1ccc(Sc2ccc([N+](=O)[O-])cc2)cc1)c1ccc2cccnc2c1O | 43% and 41.8% | 30.5 | – | 24.7 | 41.3 | 26.3 | % Inhib (Table 10, Conc 1.00e-004 M): 52.7%
10 | COc1ccc(NC(=O)c2ccc3cccnc3c2O)c([N+](=O)[O-])c1 | 52.2% and 51.1% | 33.2 | 10.8 | 17.6 | 75.5 | 16.8 | –
11 | CC(C)(C)c1ccc(NC(=O)c2ccc3cccnc3c2O)cc1 | 39% | – | – | – | – | – | –
12 | O=C(Nc1ccc(S(=O)(=O)Nc2ccc3cn[nH]c3c2)cc1)c1ccc2cccnc2c1O | 90.8% and 99% | 97.6 | 26 | 58.1 | 99.4 | 87.3 | –
13 | O=C(Nc1ccccc1[N+](=O)[O-])c1ccc2cccnc2c1O | – | 3.7 | −1.3 | 9.7 | −6.5 | 3.3 | –
14 | O=C(Nc1ccccc1F)c1ccc2cccnc2c1O | 57.5% and 36.2% | 17.8 | 7.6 | 8 | 95.5 | 10.4 | –
15 | Cc1ccc(O)c(NC(=O)c2ccc3cccnc3c2O)c1 | 37% | – | – | – | – | – | –
16 | O=C(Nc1ccc(OCc2ccccc2)cc1)c1ccc2cccnc2c1O | – | 88.9 | – | 30.8 | 97.8 | 63 | % Inhib (Table 10, Conc 1.00e-004 M): 98%
